Laboratory results reported in the supplement of paper PMC4967469.
The IC50 comes from the fitted curve, where viability falls to half of the control; a fit beyond the top or the lowest dose is shown as a bound at that dose. AUC is the area under the same curve over the 256-fold range up to the top dose, as a fraction; values near 1 show little effect. For part of these data: An inferred top dose is not printed in the source and was worked back from the curve model.

What was measured:
Assay in all cases: Viability of human cancer cell lines after 72 h of drug (GDSC screen)
[1] = compound: COc1cc2nccc(Oc3ccc(NC(=O)Nc4cc(C)on4)c(Cl)c3)c2cc1OC [AV-951]; conditions: top dose 0.128 µM; top dose inferred
Method: (§1)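 Human cancer cell lines in 384-well plates, medium with 10% serum, drug for 72 h over a 256-fold dose range (nine 2-fold or five 4-fold steps up to the top dose). Adherent lines were fixed and stained with the nucleic acid dye Syto60, suspension lines read with resazurin; signal relative to control wells, capped at 0 and 100%. One two-parameter sigmoid per drug and line, fitted in a mixed model over all curves with the slope shared within a line.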

[2] = compound: CCc1cncnc1N1CCN(Cc2nc3ccc(C(F)(F)F)cc3[nH]2)CC1 [PF-4708671]; conditions: top dose 10 µM; top dose inferred
Method: as §1

[3] = compound: CC(=O)Nc1cccc(-n2c(=O)n(C3CC3)c(=O)c3c(Nc4ccc(I)cc4F)n(C)c(=O)c(C)c32)c1 [Trametinib]; conditions: top dose 1 µM
Method: as §1

[4] = compound: CCN1CCN(Cc2ccc(NC(=O)c3ccc(C)c(/C=C/c4cnc5[nH]ccc5c4OC)c3)cc2C(F)(F)F)CC1 [HG-6-64-1]; conditions: top dose 5.12 µM; top dose inferred
Method: as §1

[5] = compound: O=C(NC(COc1ccc2[nH]c(=O)[nH]c2c1)c1ccccc1)c1cccn(Cc2ccc(F)c(F)c2)c1=O [KIN001-244]; conditions: top dose 20 µM; top dose inferred
Method: as §1

[6] = compound: CCNC(=O)C[C@@H]1N=C(c2ccc(Cl)cc2)c2cc(OC)ccc2-n2c(C)nnc21 [I-BET-762]; conditions: top dose 20 µM; top dose inferred
Method: as §1

OAW-28 (ovary, adherent)
AUC [1]: 0.977 | IC50 [1]: > 128 nM | AUC [2]: 0.934 | IC50 [2]: > 10000 nM | AUC [3]: 0.915 | IC50 [3]: > 1000 nM | AUC [4]: 0.853 | IC50 [4]: > 5120 nM | AUC [5]: 0.934 | IC50 [5]: > 20000 nM | AUC [6]: 0.934 | IC50 [6]: > 20000 nM

OAW-42 (ovary, adherent)
AUC [1]: 0.984 | IC50 [1]: > 128 nM | AUC [2]: 0.969 | IC50 [2]: > 10000 nM | AUC [3]: 0.665 | IC50 [3]: 188 nM | AUC [4]: 0.796 | IC50 [4]: 2630 nM | AUC [5]: 0.938 | IC50 [5]: > 20000 nM | AUC [6]: 0.966 | IC50 [6]: > 20000 nM

OCI-AML3 (acute myeloid leukaemia, suspension)
AUC [1]: 0.991 | IC50 [1]: > 128 nM | AUC [2]: 0.98 | IC50 [2]: > 10000 nM | AUC [3]: 0.067 | IC50 [3]: < 3.91 nM | AUC [4]: 0.911 | IC50 [4]: > 5120 nM | AUC [5]: 0.489 | IC50 [5]: 1180 nM | AUC [6]: 0.373 | IC50 [6]: 589 nM

OCUM-1 (stomach, adherent)
AUC [1]: 0.987 | IC50 [1]: > 128 nM | AUC [2]: 0.966 | IC50 [2]: > 10000 nM | AUC [3]: 0.05 | IC50 [3]: < 3.91 nM | AUC [4]: 0.947 | IC50 [4]: > 5120 nM | AUC [5]: 0.873 | IC50 [5]: > 20000 nM | AUC [6]: 0.985 | IC50 [6]: > 20000 nM

OE19 (oesophagus, adherent)
AUC [1]: 0.986 | IC50 [1]: > 128 nM | AUC [2]: 0.682 | IC50 [2]: 2170 nM | AUC [3]: 0.787 | IC50 [3]: 500 nM | AUC [4]: 0.918 | IC50 [4]: > 5120 nM | AUC [5]: 0.957 | IC50 [5]: > 20000 nM | AUC [6]: 0.973 | IC50 [6]: > 20000 nM

OE21 (oesophagus, adherent)
AUC [1]: 0.977 | IC50 [1]: > 128 nM | AUC [2]: 0.966 | IC50 [2]: > 10000 nM | AUC [3]: 0.429 | IC50 [3]: 37.1 nM | AUC [4]: 0.735 | IC50 [4]: 1970 nM | AUC [5]: 0.895 | IC50 [5]: > 20000 nM | AUC [6]: 0.937 | IC50 [6]: > 20000 nM

OE33 (oesophagus, adherent)
AUC [1]: 0.975 | IC50 [1]: > 128 nM | AUC [2]: 0.977 | IC50 [2]: > 10000 nM | AUC [3]: 0.75 | IC50 [3]: 381 nM | AUC [4]: 0.878 | IC50 [4]: > 5120 nM | AUC [5]: 0.933 | IC50 [5]: > 20000 nM | AUC [6]: 0.96 | IC50 [6]: > 20000 nM

OSC-19 (head and neck, adherent)
AUC [1]: 0.987 | IC50 [1]: > 128 nM | AUC [2]: 0.97 | IC50 [2]: > 10000 nM | AUC [3]: 0.476 | IC50 [3]: 53.5 nM | AUC [4]: 0.568 | IC50 [4]: 496 nM | AUC [5]: 0.919 | IC50 [5]: > 20000 nM | AUC [6]: 0.947 | IC50 [6]: > 20000 nM

OSC-20 (head and neck, adherent)
AUC [1]: 0.98 | IC50 [1]: > 128 nM | AUC [2]: 0.924 | IC50 [2]: > 10000 nM | AUC [3]: 0.843 | IC50 [3]: 919 nM | AUC [4]: 0.698 | IC50 [4]: 1300 nM | AUC [5]: 0.868 | IC50 [5]: > 20000 nM | AUC [6]: 0.969 | IC50 [6]: > 20000 nM

OV-90 (ovary, adherent)
AUC [1]: 0.974 | IC50 [1]: > 128 nM | AUC [2]: 0.968 | IC50 [2]: > 10000 nM | AUC [3]: 0.098 | IC50 [3]: < 3.91 nM | AUC [4]: 0.865 | IC50 [4]: > 5120 nM | AUC [5]: 0.951 | IC50 [5]: > 20000 nM | AUC [6]: 0.936 | IC50 [6]: > 20000 nM

OVCAR-3 (ovary, adherent)
AUC [1]: 0.987 | IC50 [1]: > 128 nM | AUC [2]: 0.956 | IC50 [2]: > 10000 nM | AUC [3]: 0.978 | IC50 [3]: > 1000 nM | AUC [4]: 0.83 | IC50 [4]: 3690 nM | AUC [5]: 0.986 | IC50 [5]: > 20000 nM | AUC [6]: 0.987 | IC50 [6]: > 20000 nM

OVCAR-5 (ovary, adherent)
AUC [1]: 0.968 | IC50 [1]: > 128 nM | AUC [2]: 0.958 | IC50 [2]: > 10000 nM | AUC [3]: 0.17 | IC50 [3]: 4.82 nM | AUC [4]: 0.792 | IC50 [4]: 2870 nM | AUC [5]: 0.932 | IC50 [5]: > 20000 nM | AUC [6]: 0.91 | IC50 [6]: > 20000 nM

OVCAR-8 (ovary, adherent)
AUC [1]: 0.99 | IC50 [1]: > 128 nM | AUC [2]: 0.952 | IC50 [2]: > 10000 nM | AUC [3]: 0.791 | IC50 [3]: 398 nM | AUC [4]: 0.699 | IC50 [4]: 1080 nM | AUC [5]: 0.896 | IC50 [5]: > 20000 nM | AUC [6]: 0.855 | IC50 [6]: 13400 nM

OVISE (ovary, adherent)
AUC [1]: 0.964 | IC50 [1]: > 128 nM | AUC [2]: 0.962 | IC50 [2]: > 10000 nM | AUC [3]: 0.723 | IC50 [3]: 337 nM | AUC [4]: 0.847 | IC50 [4]: > 5120 nM | AUC [5]: 0.858 | IC50 [5]: > 20000 nM | AUC [6]: 0.917 | IC50 [6]: > 20000 nM

OVKATE (ovary, adherent)
AUC [1]: 0.979 | IC50 [1]: > 128 nM | AUC [2]: 0.979 | IC50 [2]: > 10000 nM | AUC [3]: 0.865 | IC50 [3]: > 1000 nM | AUC [4]: 0.965 | IC50 [4]: > 5120 nM | AUC [5]: 0.844 | IC50 [5]: > 20000 nM | AUC [6]: 0.843 | IC50 [6]: > 20000 nM

OVMIU (ovary, adherent)
AUC [1]: 0.971 | IC50 [1]: > 128 nM | AUC [2]: 0.911 | IC50 [2]: > 10000 nM | AUC [3]: 0.346 | IC50 [3]: 20.9 nM | AUC [4]: 0.816 | IC50 [4]: 3750 nM | AUC [5]: 0.813 | IC50 [5]: 14200 nM | AUC [6]: 0.775 | IC50 [6]: 9950 nM

OVTOKO (ovary, adherent)
AUC [1]: 0.977 | IC50 [1]: > 128 nM | AUC [2]: 0.923 | IC50 [2]: > 10000 nM | AUC [3]: 0.664 | IC50 [3]: 203 nM | AUC [4]: 0.615 | IC50 [4]: 727 nM | AUC [5]: 0.907 | IC50 [5]: > 20000 nM | AUC [6]: 0.912 | IC50 [6]: > 20000 nM

PA-TU-8902 (pancreas, adherent)
AUC [1]: 0.982 | IC50 [1]: > 128 nM | AUC [2]: 0.919 | IC50 [2]: > 10000 nM | AUC [3]: 0.245 | IC50 [3]: 9.94 nM | AUC [4]: 0.8 | IC50 [4]: 2970 nM | AUC [5]: 0.846 | IC50 [5]: 18500 nM | AUC [6]: 0.982 | IC50 [6]: > 20000 nM
